# Experimental data: the supplement of paper PMC11876631
# Residue numbers refer to the chain shown, from its start. In names and notes the source's numbering stands. ± gives the standard deviation of the averaged measurements. Laboratory Escherichia coli strains with one amino-acid change in an essential protein, pooled on minimal glucose agar with carbenicillin or gentamicin at twice the control MIC (plus kanamycin and chloramphenicol for the plasmids), 48 h. Fold change of barcode share against drug-free plates; higher = less susceptible. Active = above 20 in both replicates (the paper's putatively resistant). '<' = one read or none on drug, '>' = one read or none on a drug-free plate. Shares are relative, so most strains fall below 1 when a few take over. Listed are strains with at least 15 reads on both drug-free plates, and hits; most hits rest on fewer reference reads. Replicate rank correlation about 0.5. Edits are read from barcodes.
# B1: ilvD I36Q (protein)
# chain: MPKYRSATTTHGRNMAGARALWRATGMTDADFGKPQIAVVNSFTQFVPGHVHLRDLGKLVAEQIEAAGGVAKEFNTIAVDDGIAMGHGGMLYSLPSRELIADSVEYMVNAHCADAMVCISNCDKITPGMLMASLRLNIPVIFVSGGPMEAGKTKLSDQIIKLDLVDAMIQGADPKVSDSQSDQVERSACPTCGSCSGMFTANSMNCLTEALGLSQPGNGSLLATHADRKQLFLNAGKRIVELTKRYYEQNDESALPRNIASKAAFENAMTLDIAMGGSTNTVLHLLAAAQEAEIDFTMSDIDKLSRKVPQLCKVAPSTQKYHMEDVHRAGGVIGILGELDRAGLLNRDVKNVLGLTLPQTLEQYDVMLTQDDAVKNMFRAGPAGIRTTQAFSQDCRWDTLDDDRANGCIRSLEHAYSKDGGLAVLYGNFAENGCIVKTAGVDDSILKFTGPAKVYESQDDAVEAILGGKVVAGDVVVIRYEGPKGGPGMQEMLYPTSFLKSMGLGKACALITDGRFSGGTSGLSIGHVSPEAASGGSIGLIEDGDLIAIDIPNRGIQLQVSDAELAARREAQDARGDKAWTPKNRERQVSFALRAYASLATSADKGAVRDKSKLGG
# B2: ilvD I37A (protein)
# chain: B1 chain with Q36I, I37A
# B3: ilvD I36P (protein)
# chain: B1 chain with Q36P
# B4: ilvD I37W (protein)
# chain: B1 chain with Q36I, I37W
# B5: ilvA M70Q (protein)
# chain: MADSQPLSGAPEGAEYLRAVLRAPVYEAAQVTPLQKMEKLSSRLDNVILVKREDRQPVHSFKLRGAYAMQAGLTEEQKAHGVITASAGNHAQGVAFSSARLGVKALIVMPTATADIKVDAVRGFGGEVLLHGANFDEAKAKAIELSQQQGFTWVPPFDHPMVIAGQGTLALELLQQDAHLDRVFVPVGGGGLAAGVAVLIKQLMPQIKVIAVEAEDSACLKAALDAGHPVDLPRVGLFAEGVAVKRIGDETFRLCQEYLDDIITVDSDAICAAMKDLFEDVRAVAEPSGALALAGMKKYIALHNIRGERLAHILSGANVNFHGLRYVSERCELGEQREALLAVTIPEEKGSFLKFCQLLGGRSVTEFNYRFADAKNACIFVGVRLSRGLEERKEILQMLNDGGYSVVDLSDDEMAKLHVRYMVGGRPSHPLQERLYSFEFPESPGALLRFLNTLGTYWNISLFHYRSHGTDYGRVLAAFELGDHEPDFETRLNELGYDCHDETNNPAFRFFLAG
# B6: ilvA I83A (protein)
# chain: B5 chain with Q70M, I83A
# B7: ilvA V154D (protein)
# chain: B5 chain with Q70M, V154D
# B8: ilvA I83P (protein)
# chain: B5 chain with Q70M, I83P
# B9: ilvA I83Q (protein)
# chain: B5 chain with Q70M, I83Q
# B10: argH V345P (protein)
# chain: MALWGGRFTQAADQRFKQFNDSLRFDYRLAEQDIVGSVAWSKALVTVGVLTAEEQAQLEEALNVLLEDVRARPQQILESDAEDIHSWVEGKLIDKVGQLGKKLHTGRSRNDQVATDLKLWCKDTVSELLTANRQLQSALVETAQNNQDAVMPGYTHLQRAQPVTFAHWCLAYVEMLARDESRLQDALKRLDVSPLGCGALAGTAYEIDREQLAGWLGFASATRNSLDSVSDRDHVLELLSAAAIGMVHLSRFAEDLIFFNTGEAGFVELSDRVTSGSSLMPQKKNPDALELIRGKCGRVQGALTGMMMTLKGLPLAYNKDMQEDKEGLFDALDTWLDCLHMAALPLDGIQVKRPRCQEAAQQGYANATELADYLVAKGVPFREAHHIVGEAVVEAIRQGKPLEDLPLSELQKFSQVIDEDVYPILSLQSCLDKRAAKGGVSPQQVAQAIAFAQARLG
# Target: Escherichia coli (laboratory strain)
# Experiment: barcode share on antibiotic plates over drug-free plates; higher = less susceptible
# Experimental: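 A pool of E. coli strains, each edited to carry one amino-acid change in an essential protein, was grown for 48 h on minimal glucose agar with or without antibiotic; strain barcodes were sequenced; mean of two replicates.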
# [1] = antibiotic: carbenicillin, 2× MIC (3.1 µg/mL)
# [2] = antibiotic: gentamicin, 2× MIC (MIC 0.45 µg/mL)
Protein,fold change of barcode share [1],fold change of barcode share [2]
B1,2.1 ± 0.83,0.0402 ± 0.005
B2,2.25 ± 1.2,
B3,> 52.7 [active],
B4,29.6 [active],
B5,0.472 ± 0.14,0.0101 ± 0.0056
B6,0.782 ± 0.04,0.205 ± 0.24
B7,29.3 [active],
B8,28.2 [active],
B9,21.4 [active],
B10,0.41 ± 0.06,0.0111 ± 0.01
